Screen size: about 350,000 compounds; about 31,000 (8.9%) were called active. This list was built around the results that the source calls inconclusive (neither active nor inactive); the mix of calls is not that of the screen. Calls come from the whole dose curve; as a rule, active = well fitted inhibition curve with a large enough effect; inconclusive = small, poorly fitted or top-dose-only effect; inactive = no such curve, though single readings can be large or run the other way. A potency beside an inconclusive call is a rough fit, not a confirmed value.
Target: Histone-lysine N-methyltransferase EHMT2 (Homo sapiens) (UniProt Q96KQ7)
Sequence of UniProt Q96KQ7 (Q96KQ7 whole entry, looked up): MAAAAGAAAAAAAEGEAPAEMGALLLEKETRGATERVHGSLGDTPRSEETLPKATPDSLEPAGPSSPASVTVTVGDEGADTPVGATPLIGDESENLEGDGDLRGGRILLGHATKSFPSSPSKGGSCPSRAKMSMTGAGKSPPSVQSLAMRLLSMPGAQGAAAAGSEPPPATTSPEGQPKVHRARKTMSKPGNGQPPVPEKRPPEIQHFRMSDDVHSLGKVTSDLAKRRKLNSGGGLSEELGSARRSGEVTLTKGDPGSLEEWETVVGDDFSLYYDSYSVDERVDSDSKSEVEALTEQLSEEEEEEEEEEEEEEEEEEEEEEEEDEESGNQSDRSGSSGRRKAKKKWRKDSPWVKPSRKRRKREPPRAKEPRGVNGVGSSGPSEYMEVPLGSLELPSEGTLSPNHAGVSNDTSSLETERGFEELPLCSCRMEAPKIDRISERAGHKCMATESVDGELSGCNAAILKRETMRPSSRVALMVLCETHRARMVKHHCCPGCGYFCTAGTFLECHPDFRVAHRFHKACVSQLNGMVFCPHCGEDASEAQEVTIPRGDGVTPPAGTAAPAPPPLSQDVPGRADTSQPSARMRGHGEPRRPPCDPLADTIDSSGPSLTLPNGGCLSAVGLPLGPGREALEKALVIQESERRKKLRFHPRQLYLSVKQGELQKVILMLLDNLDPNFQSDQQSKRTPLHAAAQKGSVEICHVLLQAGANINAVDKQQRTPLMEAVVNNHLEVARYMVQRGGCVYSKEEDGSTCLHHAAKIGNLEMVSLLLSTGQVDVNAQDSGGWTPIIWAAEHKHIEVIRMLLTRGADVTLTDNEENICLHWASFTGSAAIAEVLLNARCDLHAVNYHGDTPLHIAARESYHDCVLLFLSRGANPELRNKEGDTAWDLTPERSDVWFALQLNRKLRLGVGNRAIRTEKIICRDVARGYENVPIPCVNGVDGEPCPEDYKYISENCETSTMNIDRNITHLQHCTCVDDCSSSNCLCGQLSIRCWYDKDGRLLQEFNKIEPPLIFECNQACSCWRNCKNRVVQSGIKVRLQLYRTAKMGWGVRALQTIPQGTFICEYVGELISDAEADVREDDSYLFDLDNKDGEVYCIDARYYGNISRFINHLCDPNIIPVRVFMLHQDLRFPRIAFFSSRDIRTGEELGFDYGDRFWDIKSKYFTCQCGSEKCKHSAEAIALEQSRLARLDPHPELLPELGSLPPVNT
Test: qHTS Assay for Inhibitors of Histone Lysine Methyltransferase G9a; note: nearly all actives have a fitted effect of over 75% in size
Conditions: G9a H3K9 monomethylation, AlphaScreen, 2 h; activity, negative = inhibition: at 59 µM (top of the series) unless noted
Summary of the method: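 Using a bead-based AlphaScreen, monomethylated H3K9 product from 2 h room-temperature reactions (G9a 20 nM, peptide 500 nM, SAM 20 uM) was detected with 0.5 ug/mL rabbit anti-H3K9me1 antibody.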
% is set by controls: 0 for no effect and ±100 for the full control effect; potency is the fitted concentration of half-maximal effect; tags give direction and shape of the fitted curve.

| Structure (SMILES) | Potency | activity, negative = inhibition |
| --- | --- | --- |
| COCCCNC(=S)Nc1cccc2ncccc12 | inconclusive: 50.1 µM [inhibitor, partial curve, poor fit] | – |
| c1ccc2c(-c3nc(-c4ccncc4)no3)cccc2c1 | – | inactive: 29.2% [at 12.7 µM] |
| C=CCc1cccc2cc(C(=O)N3CCN(c4ccccn4)CC3)c(=O)oc12 | inconclusive: 50.1 µM [inhibitor, partial curve] | – |
| O=C(O)/C=C/C(=O)NCCNc1ncc(C(F)(F)F)cc1Cl | – | inconclusive: -54.1% [inhibitor] |
| CCOc1ccc(Br)cc1CNc1ccc2c(c1)OCCO2 | – | inactive: -138% |
| Cc1ccc(N2CC(C)Cn3c2nc2c3c(=O)[nH]c(=O)n2C)cc1 (stereo not drawn) | – | inactive: 2.79% [at 102 µM] |
| O=C(O)C(Cc1c[nH]c2ccccc12)NS(=O)(=O)c1ccccc1 (stereo not drawn) | inconclusive: 39.8 µM [inhibitor, single point] | – |
| COc1ccc(NC(=O)CSc2nnc(C3CC3)n2C)cc1S(=O)(=O)N1CCOCC1 | inconclusive: 25.1 µM [inhibitor, single point] | – |
| CCN(CC(=O)Nc1cc(Cl)ccc1C)C(=O)Cc1ccsc1 | – | inconclusive: -83.5% [inhibitor] [at 12.7 µM] |
| CC(=O)CCC(=O)OCC(=O)c1ccc(C(F)(F)F)cc1 | inconclusive: 79.4 µM [inhibitor, single point] | – |
| CC1CCCN(C(=O)c2ccc(NC(=O)CC3SC(N4CCCC4)=NC3=O)cc2)C1 (stereo not drawn) | – | inactive: -5.35% [at 102 µM] |
| Cc1cc(C)[n+]2[nH]c(N)c(N=Nc3ccccc3)c2n1 | inconclusive: 31.6 µM [inhibitor, full curve] | – |
| CC1CCN(c2oc(-c3cccc4ccccc34)nc2C#N)CC1 | inconclusive: 22.4 µM [inhibitor, single point] | – |
| Cc1ccccc1C(=O)Nc1cc(S(=O)(=O)N2CCCCC2)ccc1N1CCN(C)CC1 | inconclusive: 25.1 µM [inhibitor, single point] | – |
| O=c1c(-c2n[nH]c(=S)o2)cccn1Cc1ccccc1 | active: 25.1 µM | – |
| CN(C)c1ccc(NS(=O)(=O)c2cc(Cl)ccc2Cl)cc1 | active: 8.91 µM | – |
| O=S(=O)(CCN1CCCCC1)Oc1ccc(Cl)cc1Cl | inconclusive: 79.4 µM [inhibitor, single point] | – |
| CCc1nnc(NS(=O)(=O)c2ccc(N/C=C\C(=O)c3ccc(C)cc3)cc2)s1 | – | inactive: -31.5% |
| COC(=O)C(Cc1ccccc1)NC(=S)NC(=O)c1ccccc1 (stereo not drawn) | inconclusive: 89.1 µM [inhibitor, partial curve, poor fit] | – |
| OCCCn1c(-c2ccccc2)nc(=S)c2c1CCCC2 | inconclusive: 25.1 µM [inhibitor, partial curve, poor fit] | – |
| O=C(C1=C(O)C(=O)N(Cc2ccco2)C1c1ccccc1)c1cccs1 (stereo not drawn) | inconclusive: 79.4 µM [inhibitor, single point] | – |
| COc1ccc(Cn2c(O)c(C=Nc3ccc(O)cc3)c3ccccc3c2=O)cc1 | inconclusive: 10 µM [inhibitor, single point] | – |
| Cc1nc(SCC(=O)Nc2ccc(Br)cc2)[nH]c(=O)c1Cc1ccccc1 | inconclusive: 14.1 µM [inhibitor, partial curve] | – |

| Structure (SMILES) | Potency | activity, negative = inhibition |
| --- | --- | --- |
| COc1ccc(N2CCN(c3cc(C)c4ccc(O)cc4n3)CC2)cc1 | inconclusive: 31.6 µM [inhibitor, single point] | – |
| O=C(Cc1nc2ccccc2[nH]1)c1ccc(Cl)cc1 | – | inactive: 4.29% [at 102 µM] |
| COc1ccc(-c2csc(N(CCCN(C)C)C(=O)c3ccccc3F)n2)cc1 | inconclusive: 89.1 µM [inhibitor, single point] | – |
| O=C(COc1cccnc1[N+](=O)[O-])N1CCN(S(=O)(=O)c2ccc3ccccc3c2)CC1 | inconclusive: 39.8 µM [inhibitor, single point] | – |
| COc1ccc(N2CCN(C(=O)c3ccc4c(c3)CCN4S(C)(=O)=O)CC2)cc1 | inconclusive: 5.62 µM [inhibitor, full curve] | – |
| CCN1C(=O)C(CC(=O)Nc2ccc(F)cc2)N(CCCN2CCN(c3ccc(F)cc3)CC2)C1=S (stereo not drawn) | inconclusive: 39.8 µM [inhibitor, single point] | – |
| CCNc1nc(C23CC4CC(CC(C4)C2)C3)cs1 | inconclusive: 39.8 µM [inhibitor, single point] | – |
| CC[n+]1cc(-c2ccccc2)nc(N2CCOCC2)n1 | active: 10 µM | – |
| OCC1(Cc2ccccc2C(F)(F)F)CCN(Cc2ccccc2)CC1 | – | inactive: -6.18% [at 102 µM] |
| C=CCn1c(CCc2ccccc2)nnc1SCC(=O)OC | inconclusive: 39.8 µM [inhibitor, partial curve, poor fit] | – |
| Cc1cc(C)cc(N2CN=c3s/c(=C\c4ccco4)c(=O)n3C2)c1 | – | inactive: -10.4% |
| O=C(/N=C1\NC(=O)C(F)(C(F)(F)F)S1)NC1CCCCC1 (stereo not drawn) | active: 3.16 µM | – |
| COc1ccc(OC)c(NC(=O)COc2coc(CN3CCc4ccccc43)cc2=O)c1 | inconclusive: 44.7 µM [inhibitor, partial curve, poor fit] | – |
| COc1ccc(OC)c(NC(=O)COC(=O)c2c3c(nc4ccccc24)CCCC3)c1 | inconclusive: 20 µM [inhibitor, single point] | – |
| COCCCn1cc(C(=O)c2cc(OC)ccc2OCC(=O)Nc2cc(C)on2)cc(C#N)c1=O | – | inactive: 5.61% [at 12.7 µM] |
| CCCCOC(=O)c1ccc(NC(=O)Cc2coc3ccc(C(C)C)cc23)cc1 | – | inactive: 1.79% |
| O=C(CSc1nnc(NC(=O)C2CCC2)s1)Nc1ccccc1Br | – | inactive: -9.11% |
| N#Cc1cc(-c2ccccc2)nn1-c1ccccc1 | inconclusive: 1.41 µM [inhibitor, partial curve, poor fit] | – |
| O=C(O)C1CCCCC1C(=O)NCCCn1ccnc1 (stereo not drawn) | inconclusive: 17.8 µM [inhibitor, partial curve, poor fit] | – |
| C=C(C)Cn1c(=O)c(NC(=O)c2ccccc2)c2n(c1=S)CCC2 | inconclusive: 89.1 µM [inhibitor, single point] | – |
| O=c1c2ccccc2nc(-c2ccco2)n1CCCn1ccnc1 | inconclusive: 89.1 µM [inhibitor, partial curve, poor fit] | – |
| COc1ccccc1/C=C1/C(=O)N(c2ccccc2)N=C1C | inconclusive: 70.8 µM [inhibitor, partial curve, poor fit] | – |
| CCOc1ccc(-c2nc3scc(-c4cccs4)c3c(=O)[nH]2)cc1 | – | inactive: 9.1% [at 102 µM] |

| Structure (SMILES) | Potency | activity, negative = inhibition |
| --- | --- | --- |
| Cc1ccccc1C(=O)NC(=S)NCCc1ccccc1 | inconclusive: 89.1 µM [inhibitor, single point] | – |
| Cc1ccc(/C(O)=C2/C(=O)C(=O)N(CCN3CCOCC3)C2c2cccs2)cc1 (stereo not drawn) | inconclusive: 89.1 µM [inhibitor, single point] | – |
| CN(CC1COc2ccccc2O1)C(=O)CSc1ncnc2sccc12 (stereo not drawn) | inconclusive: 31.6 µM [inhibitor, single point] | – |
| Cc1cccc(C(=O)Nc2nc(-c3ccc(Br)cc3)ns2)c1 | inconclusive: 6.31 µM [inhibitor, single point] | – |
| CCOc1ccc(OCc2cccc(C(=O)O)c2)cc1 | inconclusive: 89.1 µM [inhibitor, single point] | – |
| COc1cccc(-c2nn(C)c3sc(C(=O)N4CCN(c5cccc(C)c5)C(C)C4)cc23)c1 (stereo not drawn) | inconclusive: 8.91 µM [inhibitor, partial curve, poor fit] | – |
| CC(=O)Nc1ccc(NC(=O)C(Sc2ccccc2)c2ccccc2)cc1 (stereo not drawn) | – | inactive: -10.6% [at 12.7 µM] |
| O=C(CNCC1CCCO1)Nc1ccccc1-n1cccc1 (stereo not drawn) | active: 8.91 µM | – |
| CC(=O)NS(=O)(=O)c1ccc(NC(=O)c2ccc(S(=O)(=O)N3CCCC3)cc2)cc1 | – | inactive: 16.8% [at 2.33 µM] |
| O=C(NCc1ccc(N2CCCC2=O)cc1)Nc1cccc(Cl)c1 | inconclusive: 3.16 µM [inhibitor, partial curve, poor fit] | – |
| Cc1cc(C)c2c(CN3CCN(C/C=C/c4ccccc4)CC3)cc(=O)oc2c1 | inconclusive: 89.1 µM [inhibitor, single point] | – |
| CN(C)CCN1C(=O)c2ccccc2N(C)c2ccccc21 | inactive | – |
| Cc1ccc(CN2CCN(Cc3nc4c(s3)CCCC4)CC2CCO)cc1 (stereo not drawn) | inconclusive: 89.1 µM [inhibitor, partial curve, poor fit] | – |
| CC(=O)Nc1ccc(NC(=O)Cn2c(CC(=O)N3CCCC3)nc3ccccc32)cc1 | – | inactive: -1.5% |
| O=C(Nc1ccc(F)cc1F)c1ccc2c(c1)OCCO2 | inconclusive: 35.5 µM [inhibitor, partial curve, poor fit] | – |
| Nc1c(C(=O)NCCC2=CCCCC2)sc2ccc(S(=O)(=O)N3CCCCC3)cc12 | inconclusive: 79.4 µM [inhibitor, single point] | – |
| Cc1ccc(OCCCCn2c(CCNC(=O)C(C)(C)C)nc3ccccc32)cc1 | inconclusive: 31.6 µM [inhibitor, single point] | – |
| CCOC(=O)C1=C(C)NC2=C(C(=O)CC(C)(C)C2)C1c1ccc2c(c1)CCCN2C (stereo not drawn) | inconclusive: 3.55 µM [inhibitor, full curve] | – |
| CCc1ccc(Nc2nnc(SCC(=O)c3c(N)n(C4CC4)c(=O)[nH]c3=O)s2)cc1 | inconclusive: 35.5 µM [inhibitor, single point] | – |
| CCOC(=O)c1cc(-c2ccc(OC(F)F)cc2)nc2nc(SC)[nH]c(=O)c12 | active: 44.7 µM | – |
| O=C1/C(=C/c2cccs2)N=C(c2cccs2)N1Nc1ccccc1 | active: 50.1 µM | – |
| CCOC(=O)C1=NN(c2cccc(C)c2)C2(S1)SC(C(C)=O)=C(C)N2c1ccccc1 (stereo not drawn) | active: 15.8 µM | – |

Source: PubChem BioAssay AID504332 (National Center for Advancing Translational Sciences (NCATS), 2011)
